Measurements taken from PubChem BioAssay AID1030 (National Center for Advancing Translational Sciences (NCATS), 2008).
Hit rate of the full screen: of about 220,000 compounds, about 16,000 (7.3%) were called active. The inconclusive results got no clear call from the source; some entries with a clear call stand among them for comparison. The call rests on the fitted dose curve; in most records, active means well fitted inhibition curve with a large enough effect (not every such curve was filed as active); inconclusive means small, poorly fitted or top-dose-only effect, or another doubt; inactive means no such curve, though single readings can be large or run the other way. No potency is given beside an inconclusive call; the fits are too rough.

These compounds were tested against Aldehyde dehydrogenase 1A1 (Homo sapiens) (UniProt P00352) (assay: qHTS Assay for Inhibitors of Aldehyde Dehydrogenase 1 (ALDH1A1)). Conditions: Purified ALDH1A1, NADH fluorescence, propionaldehyde substrate; series mostly up to 75.3 µM; activity, negative = inhibition: at the top concentration.
Potency means the concentration at half of the fitted maximal effect; tags describe the fitted curve by direction and shape.
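Wherever activity, negative = inhibition is given: plate controls were no enzyme wells and a reference inhibitor.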

Sequence of UniProt P00352 (P00352 whole entry, looked up): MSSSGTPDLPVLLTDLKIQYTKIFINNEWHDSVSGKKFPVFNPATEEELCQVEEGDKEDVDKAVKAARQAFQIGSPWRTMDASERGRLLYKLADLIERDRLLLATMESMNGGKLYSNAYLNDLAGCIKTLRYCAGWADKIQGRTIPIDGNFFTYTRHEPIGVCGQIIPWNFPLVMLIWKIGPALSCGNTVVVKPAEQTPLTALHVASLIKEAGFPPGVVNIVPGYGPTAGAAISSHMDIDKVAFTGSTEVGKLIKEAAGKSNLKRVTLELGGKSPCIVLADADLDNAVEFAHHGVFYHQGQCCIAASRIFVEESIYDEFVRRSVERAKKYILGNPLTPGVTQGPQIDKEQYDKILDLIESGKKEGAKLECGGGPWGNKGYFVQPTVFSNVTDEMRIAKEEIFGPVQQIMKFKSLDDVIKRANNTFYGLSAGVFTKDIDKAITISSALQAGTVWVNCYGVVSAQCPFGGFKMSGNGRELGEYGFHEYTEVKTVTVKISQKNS

SMILES	Potency	activity, negative = inhibition
CN1C(=O)C2C(c3ccc(N(C)C)cc3)=NN(Cc3ccccc3)C2C1=O (stereo unspecified)	inconclusive [inhibitor, single point]	
CCOC(=O)C1=C(N)Oc2ccc(Br)cc2C1C(C#N)C(=O)OCC (stereo unspecified)	active: 15.8 µM	
CCc1cc2cc(C)c(C)cc2nc1SCC(=O)Nc1cc(C)on1		inactive: 12.4%
COc1ccc(-c2nn(-c3ccccc3)cc2/C=N/NC(=O)c2ccc(Br)o2)cc1	inconclusive [inhibitor, partial curve]	
CN1CCN(C(=S)SCC(=O)Nc2nc(-c3ccccc3)c(-c3ccccc3)o2)CC1	inconclusive [inhibitor, full curve, poor fit]	
COC(=O)c1ccc(NS(=O)(=O)c2cc(C)ccc2OC)cc1		inactive: 0.735%
COc1ccccc1N1CCN(C2CCN(C(=O)c3cccc(F)c3)CC2)CC1	inconclusive [inhibitor, single point]	
Cc1ccc2cc(CN(CC(C)C)C(=O)C3CCCO3)c(=O)[nH]c2c1 (stereo unspecified)	inconclusive [inhibitor, single point]	
CC(=O)C1=C(O)C(=O)N(c2nccs2)C1c1ccccc1 (stereo unspecified)	inconclusive [inhibitor, single point]	
Cc1ccccc1C(=O)Nc1ccccc1C(=O)NCc1ccccc1	inconclusive [inhibitor, single point]	
CC(C)c1ccccc1S(=O)(=O)c1cc(N)c2ncccc2c1[N+](=O)[O-]		inactive: -7.01%
O=C1c2ccccc2-c2c1cccc2C(=O)N1CCN(C(=O)c2ccco2)CC1	active: 15.8 µM	
COc1cc(CCCN2C(=S)NC[C@@H]2CCCCN)cc(OC)c1OC		inactive: -1.21%
CCOC(=O)N1CCC(N2C(=O)c3ccccc3C2Nc2cc(C(=O)OC)cc(C(=O)OC)c2)CC1 (stereo unspecified)	inconclusive [inhibitor, partial curve]	
CCNC(=S)N(CCc1ccc(OC)c(OC)c1)Cc1cc2cc(OC)ccc2[nH]c1=O	inconclusive [inhibitor, single point]	
Cc1ccc(CCN2C(=O)CCC2(C)C(=O)NCc2cccnc2)cc1 (stereo unspecified)		inactive: 2.43%
CN(C)CCCNc1cn[nH]c(=O)c1Cl		inactive: 3.32%
CCC1=Nc2cc(C(=O)NCc3ccco3)ccc2Sc2ccc(Cl)cc21	inconclusive [inhibitor, partial curve]	
CCCCc1ccc(/C=C(\C#N)C(N)=S)s1	inconclusive [inhibitor, single point]	
COc1ccc(CNS(=O)(=O)c2ccc(F)c(C(=O)Nc3ccccc3OC)c2)cc1	inconclusive [inhibitor, single point]	
c1ccc(CNCc2ccc3c(c2)OCO3)nc1	inconclusive [inhibitor, single point]	
COc1cc(/C=C2/SC(N)=NC2=O)ccc1Oc1ccc([N+](=O)[O-])cc1[N+](=O)[O-]		inactive: -0.733%
CCC(=O)N=c1ccn(C2=Nc3ccccc3NC2=C(C#N)C#N)cc1		inactive: 0.377%
S=c1nc(-c2nc(=S)[nH]c3c2CCCCCCCCCC3)c2c([nH]1)CCCCCCCCCC2		inactive: -0.348% [at 13.5 µM]
COc1ccc(C2CCCN2C(=S)Nc2ccc(C)cc2Cl)cc1OC (stereo unspecified)	inconclusive [inhibitor, single point]	
CN(C)c1ccc(/C=C/C(=O)c2ccc(C(C)(C)C)cc2)cc1[N+](=O)[O-]		inactive: -0.256%

SMILES	Potency	activity, negative = inhibition
CCc1cc2cccc(C)c2nc1SCC(=O)c1ccc(NC(C)=O)cc1	inconclusive [inhibitor, single point]	
CN(C)c1ccc(C2NCCS2)cc1 (stereo unspecified)	active: 1 µM	
COc1ccc(C(=O)NCc2n[nH]c(=S)n2-c2ccccc2)cc1OC	inconclusive [inhibitor, partial curve]	
CC(=O)Nc1ccc(S(=O)(=O)Oc2ccc(C(=S)N3CCCCC3)cc2)cc1	active: 14.1 µM	
O=c1[nH]c2cc3c(cc2cc1CN(Cc1nnnn1CC1CCCO1)C1CCCCC1)OCO3 (stereo unspecified)	inconclusive [inhibitor, partial curve]	
O=C(CSc1ccc(-c2ccccn2)nn1)c1ccc([N+](=O)[O-])cc1	active: 1 µM	
O=C(C#Cc1cccc([N+](=O)[O-])c1)c1ccccc1	active: 3.55 µM	
CC1CC(C)CN(C(=O)c2ccncc2)C1 (stereo unspecified)		inactive: -13.2%
Cn1cccc1-c1nc2ccccc2n1Cc1ccccc1	inconclusive [inhibitor, single point]	
COCCNc1nc2c(c(=O)n(C)c(=O)n2C)n1Cc1cccc(C(F)(F)F)c1		inactive: 15.4%
O=C(Oc1ccc([N+](=O)[O-])cc1)c1ccc2ccccc2n1	inconclusive [inhibitor, single point]	
Cc1cc(C2=NNC(=NCc3ccccc3)SC2)c(C)n1-c1c(C)n(C)n(-c2ccccc2)c1=O	inconclusive [inhibitor, single point]	
CCOC(=O)/C(=C/C=C1\Sc2cc(OCC)c(OCC)cc2N1CC)C(C)=O		inactive: -7.3%
Cc1ccc(S(=O)(=O)N2CCC(C(=O)NCC3CCCO3)CC2)cc1 (stereo unspecified)		inactive: 15.3%
C[C@H](O)CC1=C[C@H](O)[C@@H](C)OC1=O		inactive: 2.52%
CC(=O)Nc1ccc(S(=O)(=O)N(Cc2ccco2)CC2CCCO2)cc1 (stereo unspecified)	active: 12.6 µM	
COCC(=O)OCC(=O)N1N=C(c2ccc(Cl)cc2)CC1c1ccco1 (stereo unspecified)	inconclusive [inhibitor, single point]	
COc1ccc2[nH]c(C)c(C(=O)CN3CCN(C(=O)c4ccco4)CC3)c2c1		inactive: -1.8%
Cc1nsc(Nc2ccc([N+](=O)[O-])cc2)c1C#N	inconclusive [inhibitor, single point]	
Cc1nnc2n(c1=O)N=C(c1ccc(Cl)cc1)CS2	inconclusive [inhibitor, single point]	
CCOC(=O)C1=C(N)N(c2ccc(N3CCCCC3)cc2)C(=O)C1	inconclusive [inhibitor, single point]	
O=C(CCCN1C(=O)/C(=C/c2cccs2)SC1=S)Nc1ccc(O)c(C(=O)O)c1	inconclusive [inhibitor, partial curve]	
COc1ccc(C(=O)NN2CC(O)=C(c3nc4ccccc4n3C)C2=N)cc1OC		inactive: -0.536%
Nc1c(C(=O)c2ccccc2)sc(Nc2ccccc2)c1S(=O)(=O)c1ccccc1	inconclusive [inhibitor, single point]	
Cc1ccc(C(=O)NC(=S)Nc2ccc3c(c2)OCCO3)c(C)c1	inconclusive [inhibitor, single point]	
COc1ccc(NC(=S)NNS(=O)(=O)c2ccc3ccccc3c2)c(OC)c1	active: 22.4 µM	

SMILES	Potency	activity, negative = inhibition
Cc1nc2scc(-c3ccco3)c2c(=O)n1/N=C/N(C)C		inactive: -9.39%
CC(C)NC(=O)N1CCC2(CC1)CCN(C(=O)c1cccc(F)c1)CC2		inactive: 3.13%
FC(F)Oc1ccccc1NC(=S)NCc1ccco1	inconclusive [inhibitor, single point]	
CCOC(=O)N1CC=C2C(C#N)=C(N)C(C#N)(C#N)[C@H](c3ccccc3OCC)[C@H]2C1		inactive: 6.76%
COc1ccc(CC(=O)N2CCN=C2SCc2cccc([N+](=O)[O-])c2)cc1	inconclusive [inhibitor, single point]	
COc1ccc(CNC(=O)CN(CCC(C)C)S(=O)(=O)c2ccc3c(c2)OCCO3)cc1		inactive: -1.05%
C=CCOC(=O)C(C(C)=O)C(NC(=O)OC)c1cccs1 (stereo unspecified)		inactive: 8.03% [at 13.5 µM]
COC(=O)[C@H](CCSC)NC(=O)Nc1ccc(C(C)=O)cc1		inactive: -0.0956%
Cc1nc2cc(NC(=O)Nc3ccc(Br)cc3)ccc2o1		inactive: 15.3%
COc1ccc(CCN(C)C(=O)CSc2nccn2C)cc1OC	inconclusive [inhibitor, partial curve, poor fit]	
O=C(O)c1ccccc1SCc1nc2ccccn2c1Br		inactive: 5.67%
Cc1c(C(=O)OCC(=O)NCCN2C(=O)CSC2=O)oc2c1ccc1ccccc12	inconclusive [inhibitor, partial curve]	
CC(C)c1cc(C(=O)NNC(=S)NCc2ccco2)c(O)c(C(C)C)c1	active: 22.4 µM	
O=C(c1ccc2c(c1)OCO2)C1CCCN(Cc2cccn2-c2cccnc2)C1 (stereo unspecified)	inconclusive [inhibitor, partial curve]	
Cc1cc(=O)oc2cc(OCC(=O)OCc3nnc(-c4ccccc4)o3)ccc12	inconclusive [inhibitor, partial curve]	
CCOC(=O)c1c(-c2ccccc2)oc2ccc(O)c(CN3CCCC3)c12		inactive: -11.7%
Cn1cnc([N+](=O)[O-])c1Sc1nc2ccccc2[nH]1	active: 20 µM	
O=C(O)c1ccccc1/C=N/Nc1ccc(S(=O)(=O)N2CCCC2)cc1[N+](=O)[O-]	active: 12.6 µM	
CN(C)c1ncc2nc(-c3ccc(Cl)cc3)c(=O)n(CCC#N)c2n1	inconclusive [inhibitor, single point]	
O=C(/C(=C/O)N=Nc1ccccc1)c1ccco1	active: 14.1 µM	
Cc1ccc(Cl)cc1N1CCN(C(=O)CCS(=O)(=O)c2cccc3nonc23)CC1	active: 22.4 µM	
O=C(Oc1ccc(C(=S)N2CCCCC2)cc1)c1ccccc1F	active: 8.91 µM	
COc1ccc(S(=O)(=O)O/N=C2\CCSc3ccc(C)cc32)cc1	active: 7.08 µM	
CCN(CC)c1nc2c(s1)C(=O)NCCC2	inconclusive [inhibitor, single point]	
